About 18,000 (5.8%) of roughly 310,000 compounds were called active. The shares of active, inactive and inconclusive entries below differ from those in the screen. The call rests on the fitted dose curve; in most records, active means well fitted inhibition curve with a large enough effect; inconclusive means small, poorly fitted or top-dose-only effect, or another doubt; inactive means no such curve, though single readings can be large or run the other way. Potencies of inconclusive entries are left out as doubtful fits.
Test: Primary qHTS for delayed death inhibitors of the malarial parasite plastid, 48 hour incubation
Conditions: P. falciparum luciferase growth in erythrocytes; series mostly up to 28.7 µM; activity change, negative = inhibition: at the top concentration
How it was run: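 Growth was read as firefly luciferase luminescence after a 48 h, 37 C, 5% CO2 exposure of compounds to reporter-bearing P. falciparum cultures (0.1% parasitemia, 2% hematocrit final) in Albumax-supplemented RPMI 1640.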
On the % scale 0 is the no-effect control and ±100 the full control effect; potency means the concentration at half of the fitted maximal effect; tags describe the fitted curve by direction and shape.

**Q.** Which Potency does the source give for `CN(C)c1oc(-c2ccco2)nc1S(=O)(=O)c1ccc(Br)cc1` here?
**A.** inconclusive [inhibitor, single point]

**Q.** With `COC(CNC(=O)Cc1c(C)nc2c(-c3ccccc3)c(C)nn2c1C)OC` as the molecule, how does the Potency read?
**A.** inconclusive [inhibitor, full curve, poor fit]

**Q.** Which Potency does the source give for `C=CCNc1nc(N)c([N+](=O)[O-])c(Nc2cccc(Cl)c2)n1` here?
**A.** inconclusive [inhibitor, single point]

**Q.** With `CCN(CC(=O)Nc1ccc(OC)cc1)C(=O)c1cc(S(=O)(=O)N(C)C)ccc1N1CCCC1` as the molecule, how does the Potency read?
**A.** inconclusive [inhibitor, partial curve, poor fit]

**Q.** For `COc1ccc(-c2sc3ccccc3c2C#CC2(O)CCCCC2)cc1`, which Potency is on record?
**A.** inconclusive [inhibitor, single point]

**Q.** Which “activity change, negative = inhibition” value does the source give for `Cc1cc(NS(=O)(=O)c2ccc(NC(=O)c3oc4ccccc4c3C)cc2)no1` here?
**A.** inactive: 16.5%

**Q.** For `O=C(NCc1ccccn1)c1cc(S(=O)(=O)N2CCCCC2)ccc1Cl`, which “activity change, negative = inhibition” value is on record?
**A.** inactive: -3.4%

**Q.** Which Potency does the source give for `CC1(C)CC(NC(=O)c2ccc(-c3ccc([N+](=O)[O-])cc3)o2)CC(C)(C)N1` here?
**A.** active: 10.4 µM

**Q.** For `COC(=O)c1cc(S(=O)(=O)N2CCCC(C)C2)cn1C` (centres undefined), which Potency is on record?
**A.** inconclusive [inhibitor, single point]

**Q.** With `CC(C)N(C(=O)c1ccccc1-c1ccccc1)C(C)C` as the molecule, how does the Potency read?
**A.** inconclusive [inhibitor, single point]

**Q.** For `O=C(NCc1ccccc1)C1=C[C@@H](c2ccccc2)C[C@@H](OCc2ccc(CO)cc2)O1`, which Potency is on record?
**A.** inconclusive [inhibitor, partial curve]

**Q.** Which “activity change, negative = inhibition” value does the source give for `O=C(c1cc(-c2ccc(Cl)cc2)n[nH]1)N1CCN(C(=O)c2ccco2)CC1` here?
**A.** inactive: 13.1%

**Q.** With `COc1ccc(N(CC(=O)Nc2cccc(N(C)S(C)(=O)=O)c2)S(=O)(=O)c2ccc(C)cc2)cc1` as the molecule, how does the Potency read?
**A.** inconclusive [inhibitor, partial curve]

**Q.** Which Potency does the source give for `Cc1nc(NC(=O)C2CC2)sc1C(=O)NC1CCCCC1` here?
**A.** inconclusive [inhibitor, single point]

**Q.** Which Potency does the source give for `CCOC(=O)C1CN(S(=O)(=O)c2ccc(C)cc2)CCN1S(=O)(=O)c1ccc(C)cc1` (centres undefined) here?
**A.** inconclusive [inhibitor, partial curve, poor fit]

**Q.** For `O=C(N/N=C/c1cc([N+](=O)[O-])ccc1O)c1cccc2ccccc12`, which Potency is on record?
**A.** active: 13.1 µM

**Q.** Which Potency does the source give for `Cc1nc(N2CCN(c3ccccn3)CC2)c2c(C)c(C(=O)Nc3ccc(F)cc3)sc2n1` here?
**A.** active: 13.1 µM

**Q.** For `CCc1ccc(CN(C)Cc2nc(Cc3cccc(C(F)(F)F)c3)no2)nc1`, which Potency is on record?
**A.** inconclusive [inhibitor, partial curve]

**Q.** Which Potency does the source give for `CCOc1c(C(=O)CC)cc2c(C)cc(=O)oc2c1C` here?
**A.** active: 11.7 µM

**Q.** For `CN(C)CCCNC(=O)c1cc(C(=O)C2CCCCC2)c[nH]1`, which Potency is on record?
**A.** inconclusive [inhibitor, single point]

**Q.** For `O=[N+]([O-])c1cccc(S(=O)(=O)c2ccc(N3CCCCC3)c([N+](=O)[O-])c2)c1`, which “activity change, negative = inhibition” value is on record?
**A.** inactive: -26%

**Q.** For `COc1ccc(C2NCCc3c2[nH]c2ccccc32)cc1COc1ccc(F)cc1` (centres undefined), which Potency is on record?
**A.** inconclusive [inhibitor, single point]

**Q.** Which Potency does the source give for `O=S(=O)(c1cccc(F)c1)N1CCN(c2ncnc3scc(-c4ccc(F)cc4)c23)CC1` here?
**A.** inconclusive [inhibitor, partial curve, poor fit]

**Q.** With `CC(CCc1ccccc1)NC(=O)CN1CCN(c2ccc(O)cc2)CC1` (centres undefined) as the molecule, how does the Potency read?
**A.** inconclusive [inhibitor, partial curve, poor fit]

**Q.** For `COc1ccc(/C=C/C(=O)NCc2ccc(F)cc2)cc1S(=O)(=O)N1CCOCC1`, which Potency is on record?
**A.** inconclusive [inhibitor, partial curve]

**Q.** For `CCOC(=O)c1cccc(NC(=O)c2cc3ccccc3o2)c1`, which “activity change, negative = inhibition” value is on record?
**A.** inactive: 108%

**Q.** With `CN(C)CCCNc1nc2sc3c(c2c(=O)n1CCc1ccccc1)CCCCC3` as the molecule, how does the Potency read?
**A.** active: 6.57 µM

**Q.** For `O=C1CC[C@@H](OCc2ccccc2)CCN1CC[C@H](Sc1ccccc1)c1ccccc1`, which Potency is on record?
**A.** inconclusive [inhibitor, partial curve]

**Q.** Which Potency does the source give for `COc1ccc(Cl)cc1NC(=O)C[n+]1cccc(C)c1` here?
**A.** active: 11.7 µM

**Q.** With `CC(=O)c1c(C)[nH]c(C(=O)OCc2ccc(F)cc2Cl)c1C` as the molecule, how does the “activity change, negative = inhibition” value read?
**A.** inactive: 66.5%

**Q.** Which “activity change, negative = inhibition” value does the source give for `CN(C(=O)CSc1ncc(C(F)(F)F)cc1Cl)c1c(N)n(Cc2ccccc2)c(=O)[nH]c1=O` here?
**A.** inactive: 5.26%

**Q.** Which Potency does the source give for `O=C(NCCc1ccc(Cl)cc1)C(=O)Nc1cc2c3c(c1)CC(=O)N3CCC2` here?
**A.** inconclusive [inhibitor, single point]

**Q.** Which Potency does the source give for `O=C(Nc1cc(Cl)ccc1-n1cncn1)c1ccc([N+](=O)[O-])s1` here?
**A.** inconclusive [inhibitor, partial curve, poor fit]

**Q.** With `COc1ccc(COC(=O)c2cc([N+](=O)[O-])ccc2N2CCOCC2)cc1F` as the molecule, how does the Potency read?
**A.** inconclusive [inhibitor, full curve, poor fit]

**Q.** With `CCCC12C(=O)C(C)(C(c3ccccc3)=C1c1ccccc1)C1C(=O)N(c3ccc(C)cc3)C(=O)C12` (centres undefined) as the molecule, how does the Potency read?
**A.** active: 2.62 µM

**Q.** With `C=CCNc1nc(Cl)nc(Nc2ccccc2)n1` as the molecule, how does the “activity change, negative = inhibition” value read?
**A.** inactive: 51.5%

**Q.** With `O=C(C1=C[C@H](c2ccc(C(F)(F)F)cc2)C[C@H](OCc2ccc(CO)cc2)O1)N1CCN(Cc2ccc3c(c2)OCO3)CC1` as the molecule, how does the Potency read?
**A.** inconclusive [inhibitor, full curve]

**Q.** Which “activity change, negative = inhibition” value does the source give for `CCn1c(SCC(=O)NC2CCCC2)nnc1C(C)NC(=O)c1ccccc1Br` (centres undefined) here?
**A.** inactive: -2.91%

**Q.** Which “activity change, negative = inhibition” value does the source give for `O=C(N/N=C/c1ccccc1OC(=O)c1ccc2c(c1)OCO2)c1ccccc1` here?
**A.** inactive: 10.5%

**Q.** For `CCOC(=O)CNC(=O)CSc1ncnc2c1cnn2-c1ccc(OC)cc1`, which Potency is on record?
**A.** inconclusive [inhibitor, full curve]

**Q.** Which Potency does the source give for `CC(C)Nc1nc(NC(C)(C)C)nc(Oc2ccc(=O)n(-c3ccccc3)n2)n1` here?
**A.** inconclusive [inhibitor, partial curve, poor fit]

**Q.** Which “activity change, negative = inhibition” value does the source give for `O=C(CCc1nc2ccccc2c(=O)[nH]1)NNC(=O)COc1ccc(Br)cc1` here?
**A.** inactive: 32.5%

**Q.** With `CCOc1ccc(-c2nnc(Nc3ccc(OC)c(C(=O)N4CCCCC4)c3)c3ccccc23)cc1` as the molecule, how does the Potency read?
**A.** active: 4.15 µM

**Q.** For `CC(C)c1ccc(C(=O)N/N=C/c2cccc(Cl)c2Cl)cc1`, which “activity change, negative = inhibition” value is on record?
**A.** inactive: 48.1%

**Q.** For `CC1CC(C)CN(S(=O)(=O)c2ccccc2[N+](=O)[O-])C1` (centres undefined), which “activity change, negative = inhibition” value is on record?
**A.** inactive: -22.9%

**Q.** For `CC(C)(C)OC(=O)N1CCC(NC(=O)c2ncn(Cc3ccccc3)c2C(=O)NC2CCN(C(=O)OC(C)(C)C)CC2)CC1`, which Potency is on record?
**A.** active: 5.22 µM

**Q.** For `FC(F)(F)c1nnc2ccc(N3CCOCC3)nn12`, which “activity change, negative = inhibition” value is on record?
**A.** inactive: 20.9%

**Q.** With `Cc1ccccc1-c1noc(N)c1C#N` as the molecule, how does the Potency read?
**A.** inconclusive [inhibitor, single point]

**Q.** With `O=P1(NCCCn2cc[n+](Cc3nc4ccccc4[nH]3)c2)C=C(c2ccccc2)OC(c2ccccc2)=C1` as the molecule, how does the Potency read?
**A.** active: 11.7 µM

**Q.** With `O=C(/C=C/c1ccc(Cl)c([N+](=O)[O-])c1)Nc1cccnc1` as the molecule, how does the Potency read?
**A.** inconclusive [inhibitor, single point]

**Q.** Which “activity change, negative = inhibition” value does the source give for `COc1cccc(CNC(=O)c2cccc(NC3=NC4CS(=O)(=O)CC4S3)c2)c1` (centres undefined) here?
**A.** inactive: 30.7%

**Q.** Which Potency does the source give for `Cc1cccc(CN2C(=O)/C(=C\c3ccc(C(=O)NCCCN4CCN(C)CC4)cc3)Oc3ccccc32)c1` here?
**A.** inconclusive [inhibitor, single point]

**Q.** Which Potency does the source give for `Cc1nc2ccc(Cc3ccc4nc(C)[nH]c4c3)cc2[nH]1` here?
**A.** inconclusive [inhibitor, single point]

**Q.** For `CSc1sc(C(=O)OC(C)C)c2c1C(=O)CC(C)(C)C2`, which Potency is on record?
**A.** active: 7.38 µM

**Q.** For `Cn1c2c(c(=O)[nH]c1=O)C(c1ccc(O)cc1)C1=C(N2)c2ccccc2C1=O` (centres undefined), which “activity change, negative = inhibition” value is on record?
**A.** inactive: -25.4%

**Q.** Which Potency does the source give for `COc1ccc(OCC(=O)Nc2ccc(N3CCN(C(=O)c4ccccc4)CC3)c(Cl)c2)cc1` here?
**A.** active: 8.28 µM

**Q.** For `O=S(=O)(c1ccccc1)N(CC(O)Cn1c2ccccc2c2ccccc21)c1ccccc1` (centres undefined), which Potency is on record?
**A.** inconclusive [inhibitor, full curve]

**Q.** For `O=C(NC1CCCCC1)OCCN1CCN(Cc2ccccc2)CCC1=O`, which “activity change, negative = inhibition” value is on record?
**A.** inactive: -6.88%

**Q.** For `NS(=O)(=O)c1cccc(NS(=O)(=O)c2ccc(/C=C/C(=O)O)cc2)c1`, which “activity change, negative = inhibition” value is on record?
**A.** inactive: 2.37%

**Q.** With `Cn1cc(C(=O)NCc2ccc(F)cc2)c(=O)c2cc(S(=O)(=O)N3CCCCC3)ccc21` as the molecule, how does the Potency read?
**A.** active: 14.7 µM

**Q.** Which “activity change, negative = inhibition” value does the source give for `CCCc1cc(=O)n2[nH]c(NC(=O)c3ccco3)nc2n1` here?
**A.** inactive: 22%

**Q.** For `N#Cc1nc(-c2cccc3ccccc23)oc1NCC#CCOC(=O)c1cccs1`, which “activity change, negative = inhibition” value is on record?
**A.** inactive: 1.24%

**Q.** For `Cc1c(C(=O)N2CCCCC2)c(S(=O)(=O)N2CCN(c3ccccc3F)CC2)c(C)n1C`, which Potency is on record?
**A.** inconclusive [inhibitor, partial curve, poor fit]

**Q.** For `O=C(Nc1ccc(Cl)cc1)C1C2C=CC3(O2)C1C(=O)N(CCCN1CCCCC1)C3C(=O)NC1CCCCC1` (centres undefined), which Potency is on record?
**A.** inconclusive [inhibitor, single point]

**Q.** For `CCCc1cc(=O)oc2c(C)c3occ(C)c3cc12`, which Potency is on record?
**A.** inconclusive [inhibitor, partial curve, poor fit]

**Q.** With `Cc1ccccc1NC(=O)c1cc2c(C)nc3ccccc3c2o1` as the molecule, how does the Potency read?
**A.** inconclusive [inhibitor, single point]

**Q.** With `CCOc1ccc(-n2c(SCc3ccc([N+](=O)[O-])cc3)nnc2-c2ccc(OC)cc2)cc1` as the molecule, how does the Potency read?
**A.** inconclusive [inhibitor, single point]

**Q.** With `N#Cc1ccccc1S(=O)(=O)N1CCN(C(=O)[C@@H]2CCCN2C(=O)c2cccs2)CC1` as the molecule, how does the Potency read?
**A.** inconclusive [inhibitor, single point]

**Q.** For `Cn1c(=O)c2c(ncn2C[C@@H](O)CO)n(C)c1=O`, which “activity change, negative = inhibition” value is on record?
**A.** inactive: -4.04% [at 12.8 µM]

— PubChem BioAssay AID504832 (National Center for Advancing Translational Sciences (NCATS), 2011)
